In assay [1] the target is GST-human-β2-appendage (700–937) K808E (human) (UniProt P63010). Description: pull-down; GST fusion protein on beads in (rat) brain extract; bound proteins detected by Western blotting (Figures 2B, 5E, 6A-D); only the target purified. Background: Immunoblotting shows a protein as a band on a membrane.
The target in assay [2] is T1, GST-mouse-β1-appendage+hinge (512–943) (mouse) (UniProt O35643).
T1 sequence: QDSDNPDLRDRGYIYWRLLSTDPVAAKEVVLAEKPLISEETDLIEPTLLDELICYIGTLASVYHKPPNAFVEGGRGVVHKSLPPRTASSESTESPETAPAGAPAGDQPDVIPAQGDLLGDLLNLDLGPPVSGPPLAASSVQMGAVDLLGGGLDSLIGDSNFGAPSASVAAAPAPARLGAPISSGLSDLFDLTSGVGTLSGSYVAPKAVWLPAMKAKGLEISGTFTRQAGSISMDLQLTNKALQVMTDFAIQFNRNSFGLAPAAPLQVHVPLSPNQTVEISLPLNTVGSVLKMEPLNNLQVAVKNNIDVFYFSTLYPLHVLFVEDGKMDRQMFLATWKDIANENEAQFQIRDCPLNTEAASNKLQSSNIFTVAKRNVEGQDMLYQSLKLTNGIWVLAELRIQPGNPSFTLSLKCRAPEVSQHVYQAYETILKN
Described as above.

Protein sequences, listed by entry. Tags and fused reporters are not part of them. Residues count along the entry.
UniProt P49951, residues 1-363: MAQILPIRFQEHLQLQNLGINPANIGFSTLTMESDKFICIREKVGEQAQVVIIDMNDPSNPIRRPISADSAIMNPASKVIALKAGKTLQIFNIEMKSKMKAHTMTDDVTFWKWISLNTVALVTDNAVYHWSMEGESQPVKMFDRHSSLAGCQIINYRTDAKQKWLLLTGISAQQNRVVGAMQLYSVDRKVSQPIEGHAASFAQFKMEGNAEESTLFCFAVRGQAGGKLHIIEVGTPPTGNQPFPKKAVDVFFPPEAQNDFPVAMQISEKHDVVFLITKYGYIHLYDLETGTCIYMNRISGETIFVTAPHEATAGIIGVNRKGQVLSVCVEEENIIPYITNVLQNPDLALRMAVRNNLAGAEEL

Assay [3] has as its target GST-human-β2-appendage (700–937) (human) (UniProt P63010). The assay is described as above.
Assay [4] concerns the target GST bovine clathrin terminal domain residues 1–363 (bovine) (UniProt P49951). Described as above.
The target in assay [5] is GST-human-β2-appendage (700–937) Y888V (human) (UniProt P63010). The description is as above.
The target of assay [6] is GST-human-β2-appendage+hinge (616–937) (human) (UniProt P63010). The assay is described as above.
In assay [7] the target is GST-human-β2-appendage (700–937) K842E (human) (UniProt P63010). Described as above.
Assay [8] has as its target GST-human-β2-appendage (700–937) (human) (UniProt P63010). Kind of assay: pull-down; Western blotting of β-appendage pull-downs for Dab2, unpublished data; extract not stated; only the target purified.

These are yes or no findings as the source states them, for the method shown. In cells and extracts the contact can be indirect. Some results given as binding are weak or reduced against the parent protein; the word gives no strength. For some assays here: Sequences can lack the tags named with a protein.

The source of these data is publication PMC1540706.

B1: amphiphysin (brain extract) (protein, UniProt O08838 1-683)
chain: MADIKTGIFAKNVQKRLNRAQEKVLQKLGKADETKDEQFEEYVQNFKRQEAEGTRLQRELRGYLAAIKGMQEASMKLTESLHEVYEPDWYGREDVKMVGEKCDVLWEDFHQKLVDGSLLTLDTYLGQFPDIKNRIAKRSRKLVDYDSARHHLEALQSSKRKDESRISKAEEEFQKAQKVFEEFNVDLQEELPSLWSRRVGFYVNTFKNVSSLEAKFHKEIAVLCHKLYEVMTKLGDQHADKAFSIQGAPSDSGPLRIAKTPSPPEEASPLPSPTASPNHTLAPASPAPVRPRSPSQTRKGPPVPPLPKVTPTKELQQENIINFFEDNFVPEINVTTPSQNEVLEVKKEETLLDLDFDPFKPDVTPAGSAAATHSPMSQTLPWDLWTTSTDLVQPASGGSFNDFTQPQDTSLFTMQTDQNMAETEQALPTEPQAEEPPTTAAAPTAGLDLGLEMEEPKEEAAIPPGTDAGETVGTEGSTGEEAEAEKAALPAGEGESPEGAKIDVESTELASSESPQAAELEAGAPQEKVIPSVVIEPASNHEGEEHQETTTGTETREATEDVAPQGPAGEKQELATEPTPLDSQAATPAPAGAVDASLSAGDAAQELPPGFLYKVETLHDFEAANSDELTLQRGDVVLVVPSDSEADQDAGWLVGVKESDWLQYRDLATYKGLFPENFTRHLE
In the case of B1, the binding result is listed as “binds” in assay [1]; “binds” in assay [2]; “binds” in assay [3]; “no binding” in assay [4]; “binds” in assay [5]; “binds” in assay [6]. In assay [7], the binding result is on record as “binds”.

B2: AP180 (brain extract) (protein, UniProt Q05140 1-915)
chain: MSGQTLTDRIAAAQYSVTGSAVARAVCKATTHEVMGPKKKHLDYLIQATNETNVNIPQMADTLFERATNSSWVVVFKALVTTHHLMVHGNERFIQYLASRNTLFNLSNFLDKSGSHGYDMSTFIRRYSRYLNEKAFSYRQMAFDFARVKKGADGVMRTMVPEKLLKSMPILQGQIDALLEFDVHPNELTNGVINAAFMLLFKDLIKLFACYNDGVINLLEKFFEMKKGQCKDALEIYKRFLTRMTRVSEFLKVADEVGIDKGDIPDLTQAPSSLMETLEQHLNTLEGKKPGNNEGSGAPSPLSKSSPATTVTSPNSTPAKTIDTSPPVDIFATASAAAPVSSAKPSSDLLDLQPDFSGARAGAAAPVPPPTGGATAWGDLLGEDSLAALSSVPSEAPISDPFAPEPSPPTTTTEPASASASATTAVTAATTEVDLFGDAFAASPGEAPAASEGATAPATPAPVAAALDACSGNDPFAPSEGSAEAAPELDLFAMKPPETSAPVVTPTASTAPPVPATAPSPAPTAVAATAATTTAAAAATTTATTSAAAATTAAAPPALDIFGDLFDSAPEVAAASKPDVAPSIDLFGTDAFSSPPRGASPVPESSLTADLLSGSGFHCAEDDRHVPLFFTAVDAFAAPSPASTASPAKAESSGVIDLFGDAFGSSASETQPAPQAVSSSSASADLLAGFGGSFMAPSTTPVTPAQNNLLQPNFEAAFGTTPSTSSSSSFDPSGDLLMPTMAPSGQPAPVSMVPPSPAMSASKGLGSDLDSSLASLVGNLGISGTTSKKGDLQWNAGEKKLTGGANWQPKVTPATWSAGVPPQGTVPPTSSVPPGAGAPSVGQPGAGYGMPPAGTGMTMMPQQPVMFAQPMMRPPFGAAAVPGTQLSPSPTPATQSPKKPPAKDPLADLNIKDFL
For the molecule B2, the binding entry is “binds” in assay [2]; “binds” in assay [3]; “no binding” in assay [4]; “binds” in assay [5]; “binds” in assay [6]; “binds” in assay [7].

B3: Dab2/Disabled2 (protein, UniProt P98082 1-770)
chain: MSNEVETSATNGQPDQQAAPKAPSKKEKKKGPEKTDEYLLARFKGDGVKYKAKLIGIDDVPDARGDKMSQDSMMKLKGMAAAGRSQGQHKQRIWVNISLSGIKIIDEKTGVIEHEHPVNKISFIARDVTDNRAFGYVCGGEGQHQFFAIKTGQQAEPLVVDLKDLFQVIYNVKKKEEEKKKIEEASKAVENGSEALMILDDQTNKLKSGVDQMDLFGDMSTPPDLNSPTESKDILLVDLNSEIDTNQNSLRENPFLTNGITSCSLPRPTPQASFLPENAFSANLNFFPTPNPDPFRDDPFTQPDQSTPSSFDSLKSPDQKKENSSSSSTPLSNGPLNGDVDYFGQQFDQISNRTGKQEAQAGPWPFSSSQTQPAVRTQNGVSEREQNGFSVKSSPNPFVGSPPKGLSIQNGVKQDLESSVQSSPHDSIAIIPPPQSTKPGRGRRTAKSSANDLLASDIFAPPVSEPSGQASPTGQPTALQPNPLDLFKTSAPAPVGPLVGLGGVTVTLPQAGPWNTASLVFNQSPSMAPGAMMGGQPSGFSQPVIFGTSPAVSGWNQPSPFAASTPPPVPVVWGPSASVAPNAWSTTSPLGNPFQSNIFPAPAVSTQPPSMHSSLLVTPPQPPPRAGPPKDISSDAFTALDPLGDKEIKDVKEMFKDFQLRQPPAVPARKGEQTSSGTLSAFASYFNSKVGIPQENADHDDFDANQLLNKINEPPKPAPRQVSLPVTKSTDNAFENPFFKDSFGSSQASVASSQPVSSEMYRDPFGNPFA
As to B3, in assay [8], the binding result was “binds”.
